Experimental data as given in PubChem BioAssay AID1963576 (National Center for Advancing Translational Sciences (NCATS), 2024).
Hit rate of the full screen: of about 46,000 compounds, about 60 (0.1%) were called active. Not shown: some 3% with an inconclusive outcome. Calls follow the shape of the dose curve; as a rule, active = well fitted inhibition curve with a large enough effect; inconclusive = small, poorly fitted or top-dose-only effect; inactive = no such curve, though single readings can be large or run the other way. Some of the results follow.

Assay: Primary qHTS assay for Inhibitors of ovarian cancer metastasis using an organotypic tumor microenvironment (TME) model. Also: nearly all actives have a fitted effect of over 65% in size.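 As to activity change, negative = inhibition: plate controls were DMSO wells for no effect and tomatine positive control wells for full effect.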
Details: SKOV3ip1-GFP adhesion/invasion on 3D omental model, fluorescence; series mostly up to 45.8 µM; activity change, negative = inhibition: at the top concentration
Method in brief: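 A 3D layer of primary human omental fibroblasts, mesothelial cells, fibronectin and collagen I, grown 48 hr, received SKOV3ip1-GFP cells in serum-free medium plus compounds at 0.36-46 umol/L. After 2 hr RT and 16 hr 37 C, fixed adherent GFP cells were counted; normalized to DMSO and tomatine.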

outcome, inactive:
COc1ccc(-c2noc(CSc3nnc(Cc4ccccc4)n3-c3ccccc3)n2)cc1OC
COc1ccc(NC(=O)Cn2c(=O)cc(C)c3c(C)nn(-c4cccc(Cl)c4C)c32)cc1OC
CCOC(=O)c1cnc2c(ccc3ccccc32)c1Nc1ccccc1OC
Cc1ccc2nc(N3CCN(c4cccc(Cl)c4)CC3)c3nnnn3c2c1
CCc1ccc2oc(-c3cccc(NC(=O)c4cc5ccccc5o4)c3)nc2c1
Cc1cc(C)cc(NC2=C(c3ccccc3)C(=O)c3ccccc32)c1
Cc1ccc2oc(=O)c3cc(C(=O)Nc4ccccc4C(N)=O)sc3c2c1
CCc1cccc(C)c1NC(=O)C1CCN(c2nn3c(=O)cc(C)nc3s2)CC1
Fc1ccc(N2CCN(c3ncnc4c3nc3n4CCCCC3)CC2)cc1
COc1cccc(C(=O)Nc2ccc(-n3nncc3-c3ccccc3)cc2)c1
Cc1oc2ncn(CC(C)C)c(=O)c2c1C(=O)NCCCN1CCC(C)CC1
Cc1ccc(C)c(-c2nnc(NC(=O)c3ccc4c(c3)OCCO4)o2)c1
COc1ccc(CCNC(=O)Cn2c(=O)c3cccn3c3ccc(F)cc32)c(OC)c1
CCOC(=O)c1c(NC(=O)c2cc(CC(C)C)on2)sc(C(C)=O)c1C

Activity change, negative = inhibition, inactive:
CC(C)Oc1ccc2c(=O)c(-c3ccccc3)coc2c1 -9.23%
O=C(NC1CC(=O)N(c2ccc3c(c2)OCCO3)C1)c1c(F)cccc1Cl (stereo not drawn) -5.33%
O=C(NCCc1csc(-c2ccc(F)cc2)n1)c1cccs1 -2.97%
Cc1ccc(S(=O)(=O)CCC(=O)Nc2ccc(Br)cc2C)cc1 -0.285%
Cc1ccc(-c2nn(-c3ccc(F)cc3F)c3c2cnc2c(F)cccc23)cc1 -5.59%
Cc1ccc(NC(=O)CSc2nc3ccccc3c3nc(CCc4c(C)n[nH]c4C)nn23)c(C)c1 1.97%
COCCNc1oc(-c2ccc(COc3ccc(OC)cc3)o2)nc1C#N 2.11%
Cc1ccc2c(c1)c(=O)c(C(=O)c1ccc3c(c1)OCO3)cn2Cc1cccc(F)c1 0.976%
Cc1ccc(C(=O)CSc2ncc3c(n2)-c2ccccc2N(Cc2ccc(Cl)cc2)S3(=O)=O)cc1 -3.95%
CCCCOc1ccc(C(=O)Nc2ccc(F)cc2F)cc1 -15.7%
Cc1nc2c(C(=O)O)cnn2c(C)c1Cc1ccccc1 -6.69%
CCCc1nn2c(=O)cc(COC(=O)c3ccc(NC(=O)CCc4ccccc4)cc3)nc2s1 -8.24%
Cc1ccccc1C(=O)Nc1nc2nc(C)c(C)c(=O)n2[nH]1 3.27%
COc1cccc(NC(=O)c2sc3nc4n(c(=O)c3c2C)CCC4)c1 -13.6%
Cc1cc2cc3c(C)cc(=O)oc3c(C)c2o1 5.84%
CCCCOc1ccc(CNC(=O)c2ccc(-c3nc(CN4CCc5ccccc54)c(C)o3)cc2)cc1 -17.6%
CC(=O)Nc1ccccc1-c1nc2ccccc2n(CC(=O)c2ccc(Br)cc2)c1=O -22.3%
CC1=C(C(N)=O)C(c2ccc(C)cc2)n2nc(SCc3ccccc3F)nc2N1 (stereo not drawn) 9.95%
CCOC(=O)c1cccc(NC(=O)c2cc(S(=O)(=O)N3CCCC(C)C3)cn2C)c1 (stereo not drawn) 4.59%
COc1cccc(-n2cc(C(=O)Nc3cc(OC)c(OC)c(OC)c3)c3ccccc3c2=O)c1 9.04%
COC(=O)CNC(c1ccccc1)c1cc(Br)ccc1NC(=O)c1ccccc1 (stereo not drawn) -0.567%
CCOC(=O)C1CCCN(C(=O)Cn2ncc3c(C)n(Cc4ccccc4F)c(C)c3c2=O)C1 (stereo not drawn) -1.58%
COc1cc(C2C(=O)N(C3CCCCC3)CC(=O)N2CCC2=CCCCC2)ccc1OC(C)C (stereo not drawn) 8.09%
COc1cccc(CNC(=O)CSc2nnc(C)c3c(C)n(-c4ccccc4)nc23)c1OC -7.47%
Cc1onc(-c2c(F)cccc2Cl)c1C(=O)Nc1ccc(OC(C)C)cc1 2.19%
COc1ccc(-c2cc(C(F)(F)F)nc(SCC(=O)N3CCCCC3C)n2)cc1OC (stereo not drawn) 10.2%
NC1=N[C@@]2(c3cc(NC(=O)c4ccc(F)cn4)ccc3F)COC[C@@H]2CS1 -4.29%
O=C(Cn1ccc2ccccc2c1=O)NCCC(=O)Nc1ccc(F)cc1F -5.23%
COc1ccccc1N1CCN(C(=O)c2c(C)oc3ncn(CC(C)C)c(=O)c23)CC1 4.78%
CCOc1ccc(Nc2cc(C)nc3nc(Cc4ccc(Cl)cc4)nn23)cc1 3.28%
COc1ccc(S(=O)(=O)c2c(O)c3ccc(C(=O)NCc4ccccc4)cc3[nH]c2=O)cc1 3.67%
CCOC(=O)c1cnc2c(ccc3ccccc32)c1Nc1ccc(OCC)cc1 -8.98%
CCOCCCn1c(=N)c(C(=O)NCc2cccnc2)cc2c(=O)n3cc(C)ccc3nc21 -6.71%
O=C1CCCc2cc(S(=O)(=O)NCC3CCC(C(=O)NCc4ccccc4Cl)CC3)ccc2N1 (stereo not drawn) 3.29%
Cc1cccc(NC(=O)Nc2ccc(Br)cc2)n1 -1.48%
COc1ccc(CCNC(=O)c2cc3c(s2)-c2ccccc2OC3)cc1OC -1.77%
Cc1ccc(NC(=O)CN2C(=O)CCc3cc(S(=O)(=O)N4CCCCC4)ccc32)cc1C 65.6%
Cc1cc(C)cc(-n2c(C)nc3cc(C(=O)NCc4ccccc4Cl)ccc32)c1 -20.1%
O=C(COc1ccccc1F)OCc1cc(=O)n2nc(C3CC3)sc2n1 5.09%
COc1ccc(CCNC(=O)c2cnc3sc(N4CCCCC4)nn3c2=O)cc1OC -1.88%
COc1ccc(-c2cc(C(=O)Oc3cccc(C)c3)c3cc(C)ccc3n2)cc1 22.7%
CC(=O)Nc1ccc(Nc2nc3c(S(=O)(=O)c4cccc(Cl)c4)nnn3c3ccsc23)cc1 -6.26%
CCN(CC)Cc1c(NC(=O)c2ccc(OC)cc2)sc2c1CCCC2 -22.5%
Cc1nc2sc(C(=O)N(C)c3ccccc3)c(NC(=O)c3ccccc3Cl)c2c(C)c1C 12%
CSc1ccc(C2c3c(oc4cc(C)cc(C)c4c3=O)C(=O)N2CCO)cc1 (stereo not drawn) 4.5%
CCCn1c(=O)c2c(nc3n2CCN3c2ccc(C)cc2)n(C)c1=O -1.53%
CC[C@@H](C)[C@@H](C(=O)Nc1ccc(C)cc1)N1Cc2ccccc2C1=O 2.77%
Cc1cc(C(C)Nc2ccccc2)c2nc(N3CCOCC3)cc(=O)n2c1 (stereo not drawn) -11.6%
Cc1ccc(CN(C(=O)COc2ccc(Cl)cc2C)C2CCS(=O)(=O)C2)o1 (stereo not drawn) -14.4%
